Source: PMC4336329 (PLoS ONE, 2015)
The campaign covered roughly 310,000 compounds. About 2,200 (0.71%) showed an effect of 50% or more. Effects have a minus sign here. Some of the results follow.

target: human ether-à-go-go-related gene (hERG) potassium channel (human, UniProt Q12809); assay: primary screen, population patch clamp on CHO cells stably expressing hERG
Sequence (Q12809 whole entry, looked up): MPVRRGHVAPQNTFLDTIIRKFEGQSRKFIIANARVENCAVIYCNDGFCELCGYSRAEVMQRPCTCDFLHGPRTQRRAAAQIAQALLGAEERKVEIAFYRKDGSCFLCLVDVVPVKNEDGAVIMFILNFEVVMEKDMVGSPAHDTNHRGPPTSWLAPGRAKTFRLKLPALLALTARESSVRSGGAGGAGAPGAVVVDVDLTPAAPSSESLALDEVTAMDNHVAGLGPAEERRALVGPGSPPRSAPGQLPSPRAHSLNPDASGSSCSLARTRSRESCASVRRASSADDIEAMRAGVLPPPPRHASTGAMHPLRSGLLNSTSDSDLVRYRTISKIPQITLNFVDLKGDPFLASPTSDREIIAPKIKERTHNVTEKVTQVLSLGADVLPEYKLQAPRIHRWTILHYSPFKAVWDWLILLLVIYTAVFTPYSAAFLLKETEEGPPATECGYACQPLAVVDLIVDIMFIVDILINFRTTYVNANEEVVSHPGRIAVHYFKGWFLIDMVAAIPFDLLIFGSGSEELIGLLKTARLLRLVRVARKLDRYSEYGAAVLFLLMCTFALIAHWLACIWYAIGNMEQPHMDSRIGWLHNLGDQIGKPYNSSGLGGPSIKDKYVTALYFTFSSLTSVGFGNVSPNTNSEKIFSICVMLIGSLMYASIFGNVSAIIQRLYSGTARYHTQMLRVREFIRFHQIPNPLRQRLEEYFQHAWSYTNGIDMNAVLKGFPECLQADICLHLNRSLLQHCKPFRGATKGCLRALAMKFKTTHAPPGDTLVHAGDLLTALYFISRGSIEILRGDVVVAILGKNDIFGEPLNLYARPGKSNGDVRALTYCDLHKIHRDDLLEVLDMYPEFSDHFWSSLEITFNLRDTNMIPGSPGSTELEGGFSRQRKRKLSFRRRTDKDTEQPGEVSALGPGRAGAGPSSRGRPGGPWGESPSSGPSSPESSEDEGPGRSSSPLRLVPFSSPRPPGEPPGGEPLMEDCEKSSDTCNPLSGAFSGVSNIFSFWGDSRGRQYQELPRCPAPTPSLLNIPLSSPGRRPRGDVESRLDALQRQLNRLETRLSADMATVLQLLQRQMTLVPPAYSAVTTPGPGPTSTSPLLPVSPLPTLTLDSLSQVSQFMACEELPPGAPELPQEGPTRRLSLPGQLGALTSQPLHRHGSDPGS

| SMILES | hERG current change (%, negative = inhibition) at 1uM |
| --- | --- |
| O=C(COC(=O)C1CCCN1C(=O)c1cccs1)c1ccccc1 (stereo not shown) | 9.65% |
| O=C(CSc1nc2ccccc2s1)N/N=C/c1ccc(C(=O)O)cc1 | 10.4% |
| O=C(O)CN1C(=O)/C(=C/c2ccc(N3CCCCC3)o2)SC1=S | 16.1% |
| O=C(O)c1ccc2c3c(cccc13)C(=O)N(c1ccccc1)C2=O | 8.95% |
| O=C(Nc1cccc(-c2csc(Nc3ccc(Cl)cc3)n2)c1)c1cccc(C(F)(F)F)c1 | 16.7% |
| CC(NC(=O)CCNS(=O)(=O)c1cccc2nsnc12)c1ccccc1 (stereo not shown) | 1.38% |
| CCCNC(=O)C(Cc1ccc(Cl)cc1)NC(=O)c1ccc(C#N)cc1 (stereo not shown) | -1.74% |
| Cc1ccc(-c2cn(CCC(=O)O)c(-c3ccc(Cl)nc3)n2)cc1 | 7.77% |
| COC(=O)C1=C(C(=O)OC)[C@@H]2Nc3ccccc3[C@@]23C[C@@H](C(=O)OC)N(C(=O)COCc2ccccc2)C3=N1 | 6.49% |
| Cc1ccc(CNc2oc(C)nc2C#N)cc1 | 2.36% |
| O=C(O)c1nc(NCc2ccccc2)ncc1Cl | 9.3% |
| Cc1ccc(C(C)C)c(OCC(=O)Nc2ccc(Cl)cn2)c1 | 6.23% |
| Cc1cccc(N2CN(Cc3cccnc3)CNC2=S)c1C | 8.71% |
| Cc1cccc(CCNCc2cc3cc(C)cc(C)c3[nH]c2=O)c1 | 7.02% |
| O=C(Nc1ccccc1)c1ccc(S(=O)(=O)Nc2cccc(O)c2)cc1 | -14.9% |
| CN(C)C=NC(=O)c1ccc(N2CCN(c3ncc(C(F)(F)F)cc3Cl)CC2)cc1 | 10.9% |
| O=C(NNC(=O)c1cnccc1C(F)(F)F)c1cccc(Cl)c1 | 9.38% |
| COc1ccc2cc(C3OCCO3)c(Cl)nc2c1 | 4.55% |
| CCN(C(=O)c1ccc(S(=O)(=O)N2CCCC2)cc1)C1CCS(=O)(=O)C1 (stereo not shown) | 7.01% |
| COc1ccccc1N1CCN(C(=O)C(=O)N/N=C/c2ccccc2F)CC1 | 5.15% |
| C/C(CCc1ccc2c(c1)OCO2)=N\NC(=O)c1ccccc1Cl | -1.21% |
| Cc1cc2oc(=O)cc(CN3CCN(Cc4ccccc4)CC3)c2cc1Cl | 0.748% |

| SMILES | hERG current change (%, negative = inhibition) at 1uM |
| --- | --- |
| C=CCN(CC=C)C(=O)c1ccc(OC2CCN(C(C)=O)CC2)c(OC)c1 | 14.1% |
| Cc1ccc(C(C(=O)NC(C)(C)C)N(C(=O)c2csnn2)C2CC2)cc1 (stereo not shown) | 11.1% |
| COc1ccccc1Nc1nc(N)nc(CN2CCN(c3ccccc3)CC2)n1 | -3.16% |
| CC1CC(C)(C)CC2(C1)NC(=O)N(CC(=O)NCc1ccccc1F)C2=O (stereo not shown) | 5.84% |
| Cc1cccn2c(=O)c3cc(C(=O)NCCCn4ccnc4)n(C)c3nc12 | 2.55% |
| O=C1SCCc2c1n(Cc1ccccc1)c1ccccc21 | -0.147% |
| COC(=O)c1sccc1NC(=O)c1cccc(Cl)c1 | -18.2% |
| CCOC(=O)C1CCN(C(=O)CSCc2nc(-c3ccc(OCC)cc3)oc2C)CC1 | 0.666% |
| COc1ccccc1NC(=O)c1sc2ncn(CC(=O)N3CCC(C)CC3)c(=O)c2c1C | 10.2% |
| Cc1cccn2c(CN3CCNC(=O)CC3)c(C(=O)N(C)CCc3ccccc3)nc12 | 3.46% |
| CCc1ccc(OCC(=O)NNC(=O)c2nn(CC)c(=O)c3ccccc23)cc1 | -11.2% |
| CCCCc1nnc(NC(=O)CSCc2cc(=O)n3cc(C)sc3n2)s1 | 11.7% |
| CC1C(=O)N2CCCc3cc(NC(=O)C(=O)NCCc4ccccc4)cc1c32 (stereo not shown) | 3.78% |
| CCOc1ccccc1NC(=O)/C=C/C(N)=O | 11.1% |
| O=C(Nc1cccc(-n2cccn2)c1)C1CCCN(Cc2ccc(C#CCCO)cc2)C1 (stereo not shown) | 11.5% |
| COc1ccc(S(=O)(=O)Nc2ccc(S(=O)(=O)NCC3CCCO3)cc2)cc1 (stereo not shown) | 8.59% |
| COc1ccc(S(=O)(=O)NC(C)C(=O)N2CCCC2)cc1C (stereo not shown) | 14.7% |
| CCN(C(=O)c1cccc(S(=O)(=O)N2CCc3ccccc32)c1)C1CCS(=O)(=O)C1 (stereo not shown) | 5.96% |
| O=C(COC(=O)c1ccc(OC(F)(F)F)cc1)NCCN1C(=O)CSC1=O | -11.9% |
| O=C(O)CCCNS(=O)(=O)c1ccc2ccccc2c1 | 14.6% |
| CCc1noc(C)c1C(=O)Nc1cc(S(=O)(=O)N2CCOCC2)ccc1N1CCN(CC)CC1 | 1.82% |
| Cc1ccc(NC(=O)c2ccccc2NC(=O)c2cccs2)cc1 | 16.8% |

| SMILES | hERG current change (%, negative = inhibition) at 1uM |
| --- | --- |
| O=C(NCc1n[nH]c(=S)n1-c1cccc(C(F)(F)F)c1)c1ccc(S(=O)(=O)N2CCCCC2)cc1 | 14.1% |
| Cn1nc(C(F)(F)F)c(-c2ccc(F)cc2)c1NC(=O)CSCC(=O)O | 11% |
| C=CCN(CC=C)CCCOc1ccc(Br)cc1Cl | -4.66% |
| C/C(=N\NC(=S)NC(C)C)c1ccccc1OC(F)F | 8.21% |
| Cc1cc(C)nc(SCc2ccc(C(=O)N/N=C/c3ccccc3C(=O)O)cc2)n1 | 6.23% |
| CNC(=O)COC(=O)c1ccc(-c2nc3ccccc3s2)s1 | 6.64% |
| CC(C)(C)n1nc2c(c1NC(=O)COc1ccc(Cl)cc1)CSC2 | -10.2% |
| Cc1nn(-c2ccccc2)c(Cl)c1C(=O)Nc1ccc(N2CCOCC2)cc1 | -2.78% |
| Cc1ccc(S(=O)(=O)N2CCN(C(=O)CSc3ccccn3)CC2)c(C)c1 | 5.57% |
| CC(OC(=O)c1cc(-c2cccnc2)nc2ccccc12)C(=O)Nc1ccc2ccccc2c1 (stereo not shown) | 8.86% |
| CCN(CC)c1ccc(C(=O)OCC(=O)Nc2cccc(S(=O)(=O)NC3=NCCCCC3)c2)cc1 | 6.14% |
| Cc1ccc2c(c1)N(CC(=O)NCC(C)c1ccccc1)C(=O)c1cccnc1O2 (stereo not shown) | 4.12% |
| CCCCn1c(N)c(N(CC(C)C)C(=O)CSCC(=O)Nc2ccc(OC)cc2)c(=O)[nH]c1=O | 3.55% |
| COC(=O)c1c(NC(=O)C(C)C)sc(C(=O)N2CCOCC2)c1C | 11.8% |
| FC(F)(F)c1cccc(OCc2nnc3n2CCC3)c1 | 13.8% |
| COC(=O)C1=C(c2ccc(OCc3ccccc3)cc2)C[C@@H]2CC[C@H]1N2C(=O)NCc1cccc(C(F)(F)F)c1 | 2.03% |
| CCc1ccc(C(=O)Nc2ccc(C)c(NS(C)(=O)=O)c2)cc1 | 12.4% |
| CSc1nc(N)c2c(n1)OC(N)=C(C#N)C2c1cccnc1 (stereo not shown) | -0.914% |
| O=C(Nc1ccc(S(=O)(=O)Nc2ncccn2)cc1)c1cccc(S(=O)(=O)N2CCCC2)c1 | 7.72% |
| COc1cc(C(=O)Nc2nncs2)cc(OC)c1OC | 6.99% |
| CC12CC(NC(=O)N1c1cccc(C(=O)N3CCN(c4ccccc4)CC3)c1)c1ccccc1O2 (stereo not shown) | 3.82% |
| CCCc1nnc(SCC(=O)N2CCCCC2C)n1CC1CCCO1 (stereo not shown) | 9.62% |

| SMILES | hERG current change (%, negative = inhibition) at 1uM |
| --- | --- |
| CCN(CC(=O)Nc1ccc2c(c1)OCCO2)C(=O)/C=C/c1ccc(OC)cc1OC | 5.15% |
| CCCc1c(O)c2ccccc2n(-c2ccccc2)c1=O | 7.88% |
| Oc1cccc(C2c3[nH]c4ccccc4c3CCN2Cc2cnn(-c3ccccc3)c2)c1 (stereo not shown) | 2.66% |
| CN(CC(=O)Nc1ccc(F)c(F)c1)S(=O)(=O)c1cccs1 | 7.44% |
| CC1CCN(C(=O)COC(=O)c2cc(Cl)c3c(c2)OCO3)CC1 | 10.2% |
| Cl.NCCSC1CC(=O)N(c2ccc(Cl)c(Cl)c2)C1=O (stereo not shown) | 18.9% |
| Cc1cc(C(=O)NCCCN2CCN(c3cc(Cl)ccc3C)CC2)n(-c2ccccc2)n1 | -43% |
| Cc1cc(C)c(NC(=O)CN(C)C(=O)CCC(=O)c2ccc(C)s2)c(C)c1 | 3.46% |
| O=C(OCc1ccc(F)cc1)c1cccnc1Cl | 9.48% |
| CN(CC(=O)NCc1ccc(Cl)cc1)S(=O)(=O)c1cccc2cccnc12 | -4.24% |
| CC(C)(C)c1cc(NC(=O)CSc2nnc(NCc3ccccc3)s2)n(-c2ccccc2)n1 | -11.6% |
| N=c1c(-c2nc3ccccc3[nH]2)cc(C(=O)c2cccs2)nn1-c1ccc(Cl)cc1 | 16.1% |
| O=C(O)CCCn1cc(NC(=O)COc2cc(F)ccc2[N+](=O)[O-])cn1 | 10.3% |
| COc1cc(/C=C/C(=O)Nc2cc(S(=O)(=O)N3CCOCC3)ccc2N2CCCC2)cc(OC)c1OC | 1.78% |
| Cc1cc(NCc2cccnc2)no1 | 17.1% |
| COC(=O)C1=C(c2cccc(OCc3ccccc3)c2)C[C@@H]2CC[C@H]1N2C(=O)NCCCOC(C)C | 12.2% |
| COc1ccc2cc(C#N)c(SCC(=O)Nc3nonc3C)nc2c1 | 6.25% |
| COc1ccc(NC(=O)CS(=O)(=O)c2ccc(C)cc2)c(OC)c1 | 12.4% |
| O=C(/C(=C/c1ccccc1Cl)c1ccccc1)N1CCOCC1 | 5.39% |
